# Source: the supplement of paper PMC3334620
# In all, about 33,000 sequences were measured (“E-score (-0.5 to 0.5)”: median about -0.035, highest 2% from about 0.34 on). This is one part of the list.
# Target: T1, Mot3 (UniProt P54785)
# T1 sequence: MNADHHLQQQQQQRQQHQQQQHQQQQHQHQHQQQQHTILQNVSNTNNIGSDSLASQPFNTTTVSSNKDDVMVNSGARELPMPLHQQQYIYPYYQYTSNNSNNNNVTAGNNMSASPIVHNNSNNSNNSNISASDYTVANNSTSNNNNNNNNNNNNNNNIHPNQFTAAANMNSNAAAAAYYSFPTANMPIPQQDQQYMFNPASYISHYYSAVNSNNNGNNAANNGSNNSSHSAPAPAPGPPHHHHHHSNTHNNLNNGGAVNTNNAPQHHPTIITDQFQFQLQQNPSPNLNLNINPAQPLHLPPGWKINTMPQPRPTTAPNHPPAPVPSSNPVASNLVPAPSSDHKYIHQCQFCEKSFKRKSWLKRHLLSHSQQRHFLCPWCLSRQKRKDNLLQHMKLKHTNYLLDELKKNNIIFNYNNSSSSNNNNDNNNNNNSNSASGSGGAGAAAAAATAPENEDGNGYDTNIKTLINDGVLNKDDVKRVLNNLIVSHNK
# Experiment: PBM E-score (8-mer binding enrichment) (E-score (-0.5 to 0.5)); higher = stronger / more preferred TF binding; most listed sequences are background and not binding sites
# Settings: protein concentration: 200 nM; construct: GST-full length
# Procedure, shortened: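 Yeast transcription factors, full-length or as DNA-binding domains, were expressed with a GST tag using PURExpress in vitro transcription/translation. At about 100-200 nM they were applied to universal all-10-mer Agilent arrays, double-stranded by primer extension on fresh or once-stripped slides. Fluorescent anti-GST detected bound protein, and masliner normalised the scans. E-scores for ungapped eight-base words, pooled with reverse complements, came from the Universal PBM Analysis Suite.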
row,Sequence,PBM E-score
1,CTAGTATA,0.0657
2,ACGAACCT,-0.0403
3,ATTCGGAA,-0.0973
4,CGCACAAA,0.0214
5,TGTCAACA,0.306
6,AAACTTGG,-0.0906
7,ATAGCCTC,-0.234
8,GGTCCCGA,-0.21
9,CGCGCTAC,0.0433
10,GCCGGATA,-0.208
11,GGGTTTCA,-0.0357
12,CCTACTGA,0.022
13,ACACGGAG,0.166
14,CTCTTTCC,-0.166
15,CAGACAAC,0.00587
16,ATGTAACC,0.166
17,ACTCGGTG,-0.144
18,GAAGTACA,0.184
19,CACGCTAC,0.0426
20,AAAGGAGC,-0.0351
21,CCAGCTAC,-0.0525
22,CGATCGCC,-0.125
23,AACGTCCC,0.0985
24,TAAGCCCA,-0.042
25,AAGGGTCC,-0.00676

row,Sequence,PBM E-score
1,CTATTACA,0.378
2,GTGGACAA,0.00658
3,CGAGTGTC,-0.186
4,GAACCTCA,-0.0997
5,GGGTCGGA,-0.125
6,ACTGGTGG,-0.246
7,CGGGTGTC,-0.0642
8,AGCGCCTA,0.246
9,CAGCTTTA,-0.00271
10,AAGACTCC,-0.284
11,ACTAGCCA,-0.0663
12,AGTATAAA,0.2
13,CGTCTGTA,0.135
14,ACAATGGG,0.0724
15,GCGCTCAC,-0.22
16,AGGATGAA,-0.169
17,ATGGGCAC,0.333
18,GAGCGGGC,-0.0797
19,AGTAGAGA,-0.00099
20,CTAGGACC,-0.347
21,CTCGGTAC,-0.107
22,TACCGGAA,-0.116
23,CCCGACAA,0.0417
24,CCCGCGTA,0.172
25,CACGTTAA,0.313

row,Sequence,PBM E-score
1,AGCTGCGG,-0.289
2,GCGCTATA,-0.0427
3,ATCTGTTG,-0.013
4,TGAGACCA,0.0857
5,CTGCACGC,-0.109
6,AAGCCTAG,-0.0459
7,ACAGATCG,-0.134
8,AGACAATC,0.0374
9,AAAGCTCA,-0.0501
10,GAAACCCA,0.0753
11,CTTAACAA,0.245
12,AGTCCCGG,-0.218
13,AATCCATA,0.0376
14,CGCGATAC,-0.0435
15,CTCGTGCA,-0.143
16,CGGAATCC,-0.253
17,CGACTAGA,-0.0287
18,CCAGGCTA,-0.195
19,ACTCACCG,-0.239
20,GCTTACTA,0.0818
21,ACAACGGG,0.07
22,CCACGTCG,-0.15
23,AGAATCAC,-0.211
24,AGAATGAG,-0.0739
25,AGGCGAGA,-0.182

row,Sequence,PBM E-score
1,ACCAGGAC,-0.0344
2,ACAAGAAA,0.142
3,CCTTTCTA,0.101
4,GACACAAA,0.082
5,CGTAGGAC,-0.166
6,TCACGTGA,-0.0741
7,GTCCCAAA,-0.0951
8,CTAACTAC,0.0583
9,CAGGCTCG,0.342
10,GGAACAAA,0.305
11,GAAAATTA,0.235
12,GCGACTCA,-0.142
13,CTTGAGCA,-0.19
14,ACGGCAAT,0.0994
15,CATTTGAC,0.0257
16,CCGACGGA,-0.274
17,GTAGGACA,0.0541
18,CATGCTGA,0.17
19,CAACGCCA,0.039
20,TTCCCAAA,0.0393
21,ACGTGCGC,0.146
22,TAAAAAGA,-0.0801
23,GCCCTATA,-0.216
24,ATCCGGCC,-0.273
25,CTTGACAC,0.143

row,Sequence,PBM E-score
1,AGCCGCCG,-0.252
2,AACACCTG,0.251
3,ATACTGAA,0.0137
4,AAGGAACG,0.465
5,ATCATACG,0.00597
6,AGAACATA,0.156
7,ACTTCAGG,0.053
8,CATACTGG,-0.0594
9,GTTCTGTA,0.126
10,ATACGAGC,0.0965
11,CTGGAACC,-0.17
12,AACCAGCT,0.0762
13,AGTCAGAT,-0.0193
14,CTTAACGC,0.204
15,ACCCCAGG,0.00741
16,CCAATGGA,-0.26
17,CAGCTGGC,-0.0634
18,GAAGCATC,-0.239
19,CGTTGACC,-0.0213
20,ATGTGTAA,0.352
21,CAGTGCGC,-0.292
22,GAACATCA,0.0642
23,GCTCGTCC,-0.215
24,ACGACGAC,-0.22
25,GAGTTAAC,0.0651

row,Sequence,PBM E-score
1,CCAGGCGC,-0.00734
2,CGTGATTA,0.0977
3,AGGCTATG,0.0627
4,GATCTAGC,-0.194
5,CCGATAAG,-0.00261
6,AATTTGAA,-0.0278
7,AGCCGAGG,-0.0186
8,CTATATGC,0.0184
9,CGACGCTA,-0.143
10,AACATACT,0.242
11,TAACACCA,0.205
12,CATAAGCA,0.00271
13,ACATGTTA,0.397
14,CTAGTATC,-0.0309
15,ACCGCAGA,-0.26
16,GCTTATAA,-0.0151
17,AGATCAAT,-0.18
18,AGGTCTAT,-0.196
19,TCTCGAGA,0.0477
20,GTCCCAGA,-0.172
21,CGAACATC,-0.199
22,AGTCTGGC,-0.162
23,TACGCGCA,0.176
24,ACGACAGT,-0.00173
25,AATACTCA,0.0675

row,Sequence,PBM E-score
1,ATAGGGGG,-0.316
2,ATAGTGGC,-0.193
3,CCCAAAAG,0.0545
4,AAGGCTGG,-0.153
5,CTCACGAC,-0.146
6,AGTGGAGA,-0.0726
7,GATTGAAA,-0.0494
8,ACATTATG,0.126
9,AGGTGTGC,0.0416
10,AGCCTTAG,-0.136
11,CCCGTGCA,-0.17
12,CCTCAGAG,-0.249
13,CCCACCGA,-0.241
14,GGCAGATA,-0.117
15,CGATTTCC,0.0121
16,CAGGTCAC,0.0164
17,TAATCTGA,0.138
18,ACGCTTTA,0.0835
19,GCCGTCGC,-0.116
20,CTATCTGA,-0.329
21,CGACCATC,-0.171
22,CATCCACA,-0.0146
